{"source": "PubChem BioAssay AID485294", "about": "(National Center for Advancing Translational Sciences (NCATS), 2010)", "note": "Hit rate of the full screen: of about 370,000 compounds, about 150 (0.041%) were called active. Inconclusive results, whose numbers are uncertain, are shown with a selection of clear calls. Calls come from the whole dose curve; as a rule, active = well fitted inhibition curve with a large enough effect; inconclusive = small, poorly fitted or top-dose-only effect; inactive = flat fitted curve, though single readings scatter. No potency is given beside an inconclusive call; the fits are too rough. Potency is the fitted concentration of half-maximal effect; tags give direction and shape of the fitted curve."}
{"biological_target": "Beta-lactamase (Escherichia coli (strain K12)) (UniProt P00811)", "sequence (P00811 whole entry, looked up)": "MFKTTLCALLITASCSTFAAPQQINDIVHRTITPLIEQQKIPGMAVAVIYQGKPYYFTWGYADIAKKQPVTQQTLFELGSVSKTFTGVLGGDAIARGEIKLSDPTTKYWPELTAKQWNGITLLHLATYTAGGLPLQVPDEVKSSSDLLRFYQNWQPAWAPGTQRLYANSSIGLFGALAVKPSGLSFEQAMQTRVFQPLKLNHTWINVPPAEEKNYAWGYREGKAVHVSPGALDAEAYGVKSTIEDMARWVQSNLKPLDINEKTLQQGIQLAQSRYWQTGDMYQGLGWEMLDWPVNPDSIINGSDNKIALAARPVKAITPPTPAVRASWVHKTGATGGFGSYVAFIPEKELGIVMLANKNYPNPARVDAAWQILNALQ", "assay": "qHTS Inhibitors of AmpC Beta-Lactamase (assay with detergent); note: nearly all actives have a fitted effect of over 25% in size", "conditions": "AmpC hydrolysis of nitrocefin, absorbance 480 nm, 0.01% Triton; series mostly up to 114 µM", "method_in_brief": "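AmpC (5.3 nM in the dispensed reagent) in 20 mM phosphate pH 7.0 with 0.01% (detergent screen) or 0.0001% Triton X-100 was preincubated with compounds for 15 min at room temperature. Nitrocefin was then added from an 800 uM solution, and hydrolysis was followed at 480 nm.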"}
{"smiles": "COc1cccc(NC(=O)Nn2cnnc2)c1", "Potency": "inconclusive [inhibitor, partial curve, poor fit]"}
{"smiles": "O=C(Nc1ccc(F)cc1)Nc1ccc(Cl)cn1", "Potency": "inconclusive [inhibitor, full curve]"}
{"smiles": "O=C(Nc1ncc(S(=O)(=O)c2ccc([N+](=O)[O-])cc2)s1)c1ccccc1F", "Potency": "inactive"}
{"smiles": "COC(=O)Cc1ccc(NC(=S)NCCCN2CCOCC2)cc1", "Potency": "inconclusive [inhibitor, partial curve, poor fit]"}
{"smiles": "CCOc1ccccc1OCC(=O)Nc1nc2ccccc2[nH]1", "Potency": "inconclusive [inhibitor, single point]"}
{"smiles": "CCC(C)(C)C1CCc2[nH]nc(C(=O)N/N=C(\\C)c3ccco3)c2C1", "note": "(centres undefined)", "Potency": "inactive"}
{"smiles": "CCCn1c(C(C)NC(=O)c2ccccc2)n[nH]c1=S", "note": "(centres undefined)", "Potency": "inactive"}
{"smiles": "CCC(=O)N1CCc2cc(Br)cc(S(=O)(=O)CCC(=O)N(CC)Cc3ccccc3)c21", "Potency": "inactive"}
{"smiles": "COC(=O)CON1C(=O)c2ccccc2C1=O", "Potency": "inactive"}
{"smiles": "O=C(CCNC(=O)c1ccc(Br)cc1)NCc1ccccn1", "Potency": "inconclusive [inhibitor, partial curve, poor fit]"}
{"smiles": "COC(=O)c1sccc1Oc1c(Cl)cccc1[N+](=O)[O-]", "Potency": "inconclusive [inhibitor, full curve, poor fit]"}
{"smiles": "Cc1cc(=O)n(CCc2ccccc2)c(O)c1C#N", "Potency": "inactive"}
{"smiles": "O=C(Nc1ccc(C(=O)N2CCN(c3ccccc3)CC2)cc1)C1=CSCCO1", "Potency": "inconclusive [inhibitor, partial curve]"}
{"smiles": "COC(=O)CNC(=O)CSc1nnc(-c2ccc(OC)cc2)n1CC(C)C", "Potency": "inconclusive [inhibitor, full curve, poor fit]"}
{"smiles": "COc1ccc(C)cc1S(=O)(=O)NC1CCCCC1C", "note": "(centres undefined)", "Potency": "inconclusive [inhibitor, full curve, poor fit]"}
{"smiles": "Cc1ccc2nc(C3CCCN(C(=O)NCc4ccccc4)C3)[nH]c2c1", "note": "(centres undefined)", "Potency": "inconclusive [inhibitor, partial curve, poor fit]"}
{"smiles": "O=C(C1CCCN(c2ncnc3c2nc2n3CCCCC2)C1)N1CCN(c2ccc(Cl)cc2)CC1", "note": "(centres undefined)", "Potency": "inactive"}
{"smiles": "O=C(c1ccc2c(c1)OCO2)N1CCN(c2ccccc2F)CC1", "Potency": "inactive"}
{"smiles": "O=C(Nc1nc(-c2cc(Cl)sc2Cl)cs1)c1ccc(Br)s1", "Potency": "inconclusive [inhibitor, single point]"}
{"smiles": "CC(=O)/C(N=Nc1ccc(C(=O)O)cc1[N+](=O)[O-])=C(\\C)O", "Potency": "inconclusive [inhibitor, single point]"}
{"smiles": "CC(C)C[C@@H]1NC(=O)[C@H](Cc2ccc(O)cc2)NC(=O)c2cc([N+](=O)[O-])cc(I)c2NCCC[C@@H](C(N)=O)NC1=O", "Potency": "inconclusive [inhibitor, partial curve, poor fit]"}
{"smiles": "NS(=O)(=O)c1ccc(NC(=O)CSC2CCCCC2)cc1", "Potency": "inconclusive [inhibitor, full curve, poor fit]"}
{"smiles": "O=C(NCc1ccco1)C(=O)c1c[nH]c2ccccc12", "Potency": "inactive"}
{"smiles": "CCOC(=O)C1=NN(C(C)=O)C2(CC(=O)N(c3cc(C)cc(C)c3)C2=O)C1", "note": "(centres undefined)", "Potency": "inconclusive [inhibitor, partial curve]"}
{"smiles": "Cc1ccccc1-n1c(-c2ccco2)nc2ccccc2c1=O", "Potency": "inconclusive [inhibitor, full curve, poor fit]"}
{"smiles": "COc1cc(CN2CCCC(CO)(Cc3cccc(Cl)c3)C2)cc(OC)c1O", "note": "(centres undefined)", "Potency": "inactive"}
{"smiles": "Cc1ccc(NC(=O)COC(=O)c2ccc([N+](=O)[O-])s2)c(C)c1", "Potency": "inconclusive [inhibitor, full curve, poor fit]"}
{"smiles": "CC(C)(C)CN1CCNC(=O)C1CC(=O)N1CCOc2ccccc2C1", "note": "(centres undefined)", "Potency": "inactive"}
{"smiles": "Cc1c(Br)cc(C(=O)O)c(C)c1C", "Potency": "inconclusive [inhibitor, full curve, poor fit]"}
{"smiles": "CCc1ccc(-c2nc(CS(=O)CC(=O)O)c(C)o2)cc1", "note": "(centres undefined)", "Potency": "inactive"}
{"smiles": "CC1(C)C(C=C(Cl)Cl)C1C(=O)Nc1ccc([N+](=O)[O-])cc1", "note": "(centres undefined)", "Potency": "inconclusive [inhibitor, full curve, poor fit]"}
{"smiles": "O=C(Oc1ccc(F)cc1C(=O)/C=C/c1cccs1)c1cccc([N+](=O)[O-])c1", "Potency": "inconclusive [inhibitor, partial curve, poor fit]"}
{"smiles": "O=S(=O)(O)c1nc2ccccc2n1Cc1ccc(Cl)cc1", "Potency": "inconclusive [inhibitor, full curve, poor fit]"}
{"smiles": "COc1ccc(OCC(=O)Nc2cc(S(=O)(=O)N3CCCC3)ccc2OCC(F)(F)F)cc1", "Potency": "inconclusive [inhibitor, partial curve, poor fit]"}
{"smiles": "O=C(NNC(=O)c1cccc(Br)c1)Nc1ccc(Cl)cc1", "Potency": "inactive"}
{"smiles": "CC(=O)c1ccc(NC(=O)CNCC(c2ccccc2)N(C)C)cc1", "note": "(centres undefined)", "Potency": "inactive"}
{"smiles": "Cc1nc2ccccn2c(=O)c1NC(=O)c1cccc2ccccc12", "Potency": "inconclusive [inhibitor, full curve, poor fit]"}
{"smiles": "COCCn1c(N)c(N(Cc2ccccc2)C(=O)COc2ccc(F)cc2Cl)c(=O)[nH]c1=O", "Potency": "inconclusive [inhibitor, full curve, poor fit]"}
{"smiles": "CCOc1ccc(NC(=S)NN(C)C(=S)Nc2ccc(OCC)cc2)cc1", "Potency": "inconclusive [inhibitor, full curve]"}
{"smiles": "CC(=O)OCCCN1C(=O)c2ccc(Br)cc2C1=O", "Potency": "inactive"}
{"smiles": "Cn1c2ccccc2c(=O)c2cc(C#Cc3ccccn3)ccc21", "Potency": "inconclusive [inhibitor, full curve, poor fit]"}
{"smiles": "CCOC(=O)c1cccc(NC(=O)C2COc3ccc(OC)cc3C2)c1", "note": "(centres undefined)", "Potency": "inconclusive [inhibitor, single point]"}
{"smiles": "Cc1ccc(CCNC(=O)C2CC(=O)N(CCc3ccc(C)cc3)C2)cc1", "note": "(centres undefined)", "Potency": "inactive"}
{"smiles": "CC1=CC(C)(C)Nc2ccc(OC(=O)C(C)N3C(=O)c4ccccc4C3=O)cc21", "note": "(centres undefined)", "Potency": "inconclusive [inhibitor, full curve, poor fit]"}
